These results are taken from paper PMC4944158.

The chains behind the UniProt entries cited, without tags or fusion partners. Where a name states a change or a piece, a line headed by the entry shows the natural chain unless it says otherwise. Residues count along the entry.
UniProt Q9JM13, residues 396-491: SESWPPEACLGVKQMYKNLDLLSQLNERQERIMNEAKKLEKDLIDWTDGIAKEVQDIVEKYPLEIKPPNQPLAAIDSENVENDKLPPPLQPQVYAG
UniProt Q62848, residues 137-415: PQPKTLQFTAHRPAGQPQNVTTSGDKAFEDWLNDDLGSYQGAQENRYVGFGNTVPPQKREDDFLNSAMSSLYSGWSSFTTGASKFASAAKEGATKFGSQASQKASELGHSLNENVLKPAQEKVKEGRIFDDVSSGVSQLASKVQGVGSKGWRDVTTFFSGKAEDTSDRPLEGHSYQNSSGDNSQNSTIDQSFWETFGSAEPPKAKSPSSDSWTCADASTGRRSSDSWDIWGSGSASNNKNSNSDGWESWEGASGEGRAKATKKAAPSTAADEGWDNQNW
UniProt Q9EPJ9: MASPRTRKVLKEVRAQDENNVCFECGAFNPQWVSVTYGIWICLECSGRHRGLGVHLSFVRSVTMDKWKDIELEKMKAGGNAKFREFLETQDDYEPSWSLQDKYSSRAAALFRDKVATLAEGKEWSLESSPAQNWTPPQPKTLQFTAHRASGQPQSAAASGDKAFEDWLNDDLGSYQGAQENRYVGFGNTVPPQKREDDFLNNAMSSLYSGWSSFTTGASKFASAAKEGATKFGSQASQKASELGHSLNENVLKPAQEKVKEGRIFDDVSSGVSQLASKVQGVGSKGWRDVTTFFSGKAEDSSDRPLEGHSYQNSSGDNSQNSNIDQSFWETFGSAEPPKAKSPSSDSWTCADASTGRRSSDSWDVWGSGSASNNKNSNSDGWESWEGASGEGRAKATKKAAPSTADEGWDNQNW
UniProt P22892: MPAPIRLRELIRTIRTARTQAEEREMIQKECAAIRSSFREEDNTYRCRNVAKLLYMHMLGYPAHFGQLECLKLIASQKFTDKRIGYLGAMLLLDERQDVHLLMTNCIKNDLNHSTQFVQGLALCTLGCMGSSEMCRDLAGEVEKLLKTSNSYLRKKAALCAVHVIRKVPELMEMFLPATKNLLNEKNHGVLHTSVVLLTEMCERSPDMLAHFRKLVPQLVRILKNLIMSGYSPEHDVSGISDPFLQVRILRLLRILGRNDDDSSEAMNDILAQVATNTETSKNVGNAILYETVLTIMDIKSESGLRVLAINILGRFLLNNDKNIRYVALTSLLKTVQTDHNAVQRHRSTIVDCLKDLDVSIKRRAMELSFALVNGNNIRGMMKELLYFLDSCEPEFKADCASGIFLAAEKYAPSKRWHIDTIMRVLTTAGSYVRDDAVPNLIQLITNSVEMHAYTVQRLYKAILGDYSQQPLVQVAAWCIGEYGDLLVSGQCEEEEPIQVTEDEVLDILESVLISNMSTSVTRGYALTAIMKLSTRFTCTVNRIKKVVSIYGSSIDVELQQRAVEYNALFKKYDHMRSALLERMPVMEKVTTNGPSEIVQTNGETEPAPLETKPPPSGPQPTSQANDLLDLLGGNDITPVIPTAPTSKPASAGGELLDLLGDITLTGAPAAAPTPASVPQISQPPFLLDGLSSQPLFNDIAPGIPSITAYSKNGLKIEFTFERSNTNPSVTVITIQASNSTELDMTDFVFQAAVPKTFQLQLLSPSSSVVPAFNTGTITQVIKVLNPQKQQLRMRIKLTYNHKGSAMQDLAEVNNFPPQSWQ

These are yes or no findings as the source states them, for the method shown. For some of these results: Binding seen in cells or lysates may run through a third protein. Some binding calls cover weakened binding; strength is not graded here.

The target of assay [1] is GST-Rabex-5 C-terminal aa396-491 domain (UniProt Q9JM13). As to the kind of experiment: pull-down; GST fusion on Glutathione Sepharose beads incubated with supernatants of homogenised synaptosomes of wt and σ1B −/− mouse brains, 4 hours at RT, PBS; Western blot; only the target purified.
The target in assay [2] is ArfGAP1^U C-terminal domain (aa 137-415) (Gal4 DNA-binding domain fusion) (UniProt Q62848). As to the kind of experiment: two-hybrid; yeast three-hybrid (Y3H): γ1 core (1-550) as Gal4 AD fusion, σ1-adaptin free, tested protein or domain as Gal4 BD fusion; yeast strain AH109, growth and interaction assays.
Assay [3] deals with Rabex-5 C-terminal aa 396-491 (Gal4 DNA-binding domain fusion) (UniProt Q9JM13). The description is as above.
For assay [4], the target named is T1, RabGAP5 (endogenous) (mouse (endogenous in MEF cells)) (UniProt Q8VCZ6).
T1 sequence: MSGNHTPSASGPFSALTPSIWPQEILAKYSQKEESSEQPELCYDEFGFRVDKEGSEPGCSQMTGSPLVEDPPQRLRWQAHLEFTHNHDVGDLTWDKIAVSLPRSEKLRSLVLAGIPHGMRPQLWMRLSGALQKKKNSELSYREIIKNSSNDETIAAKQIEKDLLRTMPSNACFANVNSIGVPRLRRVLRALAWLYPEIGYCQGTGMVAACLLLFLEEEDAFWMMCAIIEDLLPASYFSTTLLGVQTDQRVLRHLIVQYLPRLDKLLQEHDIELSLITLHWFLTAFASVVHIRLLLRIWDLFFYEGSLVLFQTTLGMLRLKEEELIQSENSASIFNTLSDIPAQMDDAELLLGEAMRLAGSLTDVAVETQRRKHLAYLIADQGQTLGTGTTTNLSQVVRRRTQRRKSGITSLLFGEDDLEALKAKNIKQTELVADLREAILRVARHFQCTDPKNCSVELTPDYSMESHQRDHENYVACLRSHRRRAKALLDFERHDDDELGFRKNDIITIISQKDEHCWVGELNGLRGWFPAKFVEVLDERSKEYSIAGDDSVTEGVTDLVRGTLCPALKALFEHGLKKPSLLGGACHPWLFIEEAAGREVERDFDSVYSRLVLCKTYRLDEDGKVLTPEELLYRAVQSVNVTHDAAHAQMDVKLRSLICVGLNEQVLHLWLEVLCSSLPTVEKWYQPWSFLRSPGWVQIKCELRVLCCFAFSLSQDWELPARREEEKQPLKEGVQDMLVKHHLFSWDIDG
As to the kind of experiment: proximity ligation; PLA in fixed (4% PFA) wt, σ1B −/− and μ1A −/− MEF cell lines; anti-γ1 with anti-Rab5, anti-Rabex-5 or anti-RabGAP5.

Assay [5] has as its target Rabex-5/ArfGAP1^U complex (UniProt Q9JM13). As to the kind of experiment: pull-down; consecutive pull-down: Rabex-5/ArfGAP1 complexes formed first on beads, then incubated with wt and σ1B −/− synaptosome extracts; anti-γ1 Western blot; only the target purified.
Assay [6] concerns the target 6His-ArfGAP1^U C-terminal domain (UniProt Q62848). Put plainly: pull-down; 6His-ArfGAP1 domains on Ni-NTA agarose beads incubated with supernatants of homogenised synaptosomes of wt and σ1B −/− mouse brains, 4 hours at RT, PBS; Western blot (anti-γ1); only the target purified.
Assay [7] addresses GST-Rabex-5 C-terminal aa396-491 domain (UniProt Q9JM13). Put plainly: pull-down; E. coli-expressed Rabex-5 used to isolate E. coli-expressed ArfGAP1 brain and ubiquitous isoforms; Western blot.

Regarding “ubiquitous ArfGAP1^U (endogenous) (from UniProt Q9EPJ9 1-414)”, in assay [1], the binding result is on record as “binds”.

For the molecule “γ1/σ1B hemicomplex (γ1 N-terminal core domain 1-550 with σ1B) (from UniProt P22892 1-550; Q9DB50 1-160)”, the binding result in assay [2] was “binds weakly”; in assay [3], “binds”.

As to “γ1/σ1A hemicomplex (γ1 N-terminal core domain 1-550 with σ1A) (from UniProt P22892 1-550; P61967 1-158)”, the results for the binding entry in assay [2] and in assay [3] were “binds weakly” and “no binding”, respectively.

For “AP-1/σ1A complexes of σ1B −/− mice (from UniProt P22892 1-822; O35643 1-943; P35585 1-423; P61967 1-158)”, the binding result in assay [4], in assay [5] and in assay [6] was “binds” each time.

Regarding “6His-ArfGAP1^U C-terminal domain (from UniProt Q62848 137-415) (domain or fragment)”, in assay [7], the binding entry is listed as “binds”.

B1: Rabaptin-5α (protein, UniProt O35551 1-862)
chain: MAQPGPAPQPDVSLQQRVAELEKINAEFLRAQQQLEQEFNQKRAKFKELYLAKEEDLKRQNAVLQAAQDDLGHLRTQLWEAQAEMENIKAIATVSENTKQEAIDEVKRQWREEVASLQAIMKETVRDYEHQFHLRLEQERAQWAQYRESAEREIADLRRRLSEGQEEENLENEMKKAQEDAEKLRSVVMPMEKEIAALKDKLTEAEDKIKELEASKVKELNHYLEAEKSCRTDLEMYVAVLNTQKSVLQEDAEKLRKELHEVCHLLEQERQQHNQLKHTWQKANDQFLESQRLLMRDMQRMEIVLTSEQLRQVEELKKKDQEEDEQQRVNKRKDNKKTDTEEEVKIPVVCALTQEESSTPLSNEEEHLDSTHGSVHSLDADLMLPSGDPFSKSDNDMFKDGLRRAQSTDSLGTSSSLQSKALGYNYKAKSAGNLDESDFGPLVGADSVSENFDTVSLGSLQMPSGFMLTKDQERAIKAMTPEQEETASLLSSVTQGMESAYVSPSGYRLVSETEWNLLQKEVHNAGNKLGRRCDMCSNYEKQLQGIQIQEAETRDQVKKLQLMLRQANDQLEKTMKEKQELEDFLKQSAEDSSHQISALVLRAQASEVLLEELQQSFSQAKRDVQEQMAVLMQSREQVSEELVRLQKDNDSLQGKHSLHVSLQLAEDFILPDTVEVLRELVLKYRENIVHVRTAADHMEEKLKAEILFLKEQIQAEQCLKENLEETLQLEIENCKEEIASISSLKAELERIKVEKGQLESTLREKSQQLESLQEMKVNLEEQLKKETAAKATVEQLMFEEKNKAQRLQTELDVSEQVQRDFVKLSQTLQVQLERIRQADSLERIRAILNDTKLTDINQLPET
As to B1, the binding entry in assay [1] is on record as “binds”.
